This is an account of results in the RNAGym collection of RNA variant scans (doi:10.7554/elife.90254).

B1: LINE1-full (parent)
chain: UACGUAGGUGGUUUUCCCCUGAUAGUGCUAAGGGGGCCUGGAAGUUUGGACUGGGCAGAGCUCAACACAGCGUGGCAAAGUGGCUGUGGCUAGACUGCCUCUCUGGAUUCCUCGUCACUCAGCAGGGCAUCUCUGAGAGAAAUGCC

The source gives no read counts; variants with many changes may rest on few reads.

This data set covers variants of B1. Kind of data set: self-cleavage, relative activity (ratio to wild type); higher = more cleavage; in vitro, sequencing; the parent is a self-cleaving ribozyme.
On to UACGUAGGUGGUUCUCCCCUGGUAGUGCUAAGGGAGCCUGGAAGUUUGGACUGGGCAGAGCUCAACACAGCGUGGCAAAGUGGCUGUGGCUAGACUGCCUCUCUGGAUUCCUCGUCACUCGGCAGGGCAUCUCUGAGAGAAAUGCC [U14C A22G G35A A121G], for which the self-cleavage worked out at 0.92. UACGUAGGUGGUUAUCCCCUGAUAGUGCUAAGGGGGCCUGGAAGUUUGGACUGGGCAGAGCCCAACACAGCACGGCAAAGUGGCUGUGGCUAGACUGCCUCUCUGGAUUCCUCGUCACUCAGCAGGGCAUCUCUGAGAGAAAUGCC [U14A U62C G72A U73C]: the self-cleavage was determined as 0.04. As for UACGUAGGUGGUUAUCCCCUGAUAGUGCUAAGGGGGCCUGGAAGUUUGGACUGGGCAGAGCCCAACACAGCGUGGCAAAGUGGCUGUGGCUAGACUGCCCCUCUGGAUUCCUCGUCACUCAGCAGGACAUCUCUGAGAGAAAUGCC [U14A U62C U100C G127A], the self-cleavage turned out to be 0.07. With UACGUAGGUGGUUAUCCCCUGAUAGUGCUAAGGGGGCCUGGAAGCUCGGAGUGGGCAGAGCUCAACACAGCGUGGCAAAGUGGCUGUGGCUAGACUGCCUCUCUGGAUUCCUCGUCACUCAGCAGGGCAUCUCUGAGAGAAAUGCC [U14A U45C U47C C51G] the figure was 1.13; with UACGUAGGUGGUUAUCCCCUGAUAGUGCUAAGGGGGCCUGGAAGUUUGGACUGGGCAGAGCCCAACACAGCGUGGCAAAGUGGCUGUGGCUGGACUGCCUCUCUGGAUUCCUCGUCACUCAGCAGGGCAUCUCUGAGAGAGAUGCC [U14A U62C A92G A141G], 0.19. Take UACGUAGGUGGUUAUCCCCUGAUAGUGCUAAGGGGGCCUGGAAGUUUGGACUGGGCAGAGCUCAACACAGCGUGGCAAAGUGGCUGUGGCUAGACUGCCACUCUGGAUUCCUCGUCACUCAGCAGGGCACCUCUGAGAGAAAUGCC [U14A U100A U130C]: the self-cleavage amounted to 0.93. Regarding UACGUAGGUGGUUAUCCCCUGAUAGUGCUAAGGGGGCCAGGAAGUUUGGACUGGGCAGAGCUCAACACAGCGUGGCAGAGUGGCUGUGGCUAGACUGCCUCUCUGGAUUCCUCGUCACUCAGCAGGGCAUCUCUGAGAGAAAUGCC [U14A U39A A78G], the self-cleavage is 0.76. With UACGUAGGUGGUUCUCCCCUGAUAGUGCUUAGGGGGCCUGGAAGUUUGGACUGGGCAGAGCUCAACACAGCGUGGCAAAGUGGCUGUGGCUAGACUGCCUCUCUGGAUUCCUCGUCACUCAGCAGGGCAUCUCUGAGAGAGAUGCC [U14C A30U A141G] the figure was 1.27. With UACGUAGGUGGUUCUCCCCUGAUAGUGCUGAGGGGGCCAGGAAGUUUGGACUGGGCAGAGCUCAACACAGCGUGGCAAAGUGGCUGUGACUAGACUGCCUCUCUGGAUUCCUCGUCACUCAGCAGGGCAUCCCUGAGAGAAAUGCC [U14C A30G U39A G89A U132C] the figure was 0.1. With UACGUAGGUGGUUCUCCCCUGAUAGUGCUAGGGGGGCCUGGAAGUUUGGACUGGGCAGGGCUCAACACAACGUGGCAAAGUGGCUGUGGCUAGACUGCCUCUCUGGAUUCCUCGUCACUCAGCAGGGCAUCUCUGAGAGAAAUGGC [U14C A31G A59G G70A C145G] the figure was 0.09; with UACGUAGGUGGUUCUCCCCUGAUGGUGCUAAGGGGGCCUGGAAGUUUGGACUGGGCAGAGCUCAACACAGCGUGGCAAAGUGGCUGUGGCUAGACUGCCUCUCUGGAUUCCUCGUCACUCAGCAGGGCAUCUCCGAGAGAAAUGCC [U14C A24G U134C], 0.71; with UACGUAGGUGGUUCUCCCCUGUUAGUGCUAAGGGGGCCAGGAAGUUUGGACUGGGCAGAGCUCAACACAGCGUGGCAAAGUGGCAGUGGCUAGACUGCCUCUCUGGAUUCCUCGUCACCCAGCAGGGCAUCUCUGAGAGAAAUGCC [U14C A22U U39A U85A U119C], 0.12. As for UACGUAGGUGGUUAUCCCCUGAUAGUGCUAAGGGGGCCUGGAAGUUAGGACUGGGCAGAGCUCAACACAGCGUGGCAAAGUGGCUGUGGCUAGACUGCCUCUCUGGAUUCCUCGUCACUCAGCAGGGCAUCUCUGAAAGAAAUGCC [U14A U47A G137A], the self-cleavage came out at 1. Take UACGUAGGUGGUUCUCCCCUGAUAGUGCUAGGGGGGCCUGGAAGUUUGGACUGGGCAGAGCUCUACACAGCGUGGCAAGGUGGCUGUGGCUAGACUGCCUCUCUGGAUUCCUCGUCACUCAGCAGGGCAUCUCUGAGAGUAAUGCC [U14C A31G A64U A79G A140U]: the self-cleavage was determined as 0.84. With UACGUAGGUGGUUCUCCCCUGAUAGUGCUUAGGGGGCCUGGAAGUUUGGACUGGGCAGAGCUCAACACAGCGUGGCAAAGUGGCUGUGGCUUGACUGCCUCUCUGGAUUCCUCGUCACUCAGCAGGGCAUCCCUGAGAGAAAUGCC [U14C A30U A92U U132C] the figure was 0.62. With UACGUAGGUGGUUAUCCCCUGAUAGUGCUAAGGGGGCCUGGAAGUUUGGACUGGGCAGAGCUCAACACAGCGUGGCAAAGUGGCUGUGGCUAGACUGCCUCUCUGGAUUCCCCGUCACUCAGCAGGGCAUCACUGAGAGAAAUGCC [U14A U112C U132A] the figure was 0.74. With UACGUAGGUGGUUAUCCCCUGAUAGUGCUAAGGGGGCCUGGAAGUUUGGACUGGGCAGAGCCCAACACAGCGUGGCAGAGUGGCUGUGGCUAGACUGCCUCCCUGGAUUCCUCGUCACUCAGCAGGGCAUCUCUGAGAGAAAUGCC [U14A U62C A78G U102C] the figure was 0; with UACGUAGGUGGUUAUCCCCUGAUAGUGCUAAGGGGGCCUGGAAGUUUGGACUGGGCAGAGCACACCACAGCGUGGCAAUGUGGCUGUGGCUAGACUGCCUCUCUGGAUUCCUCGUCACUCAGCAGGGCAUCUCUGAGAGAAAUGCC [U14A U62A A65C A79U], 0. Consider UACGUAGGUGGUUCUCCCCUGAUGGUGCUAAGGGGGCCUGGAAGUUUGGACUGGGCAGAGCUCAACACAGCGUGGCAAAGUGGCUGUGGCUAGACUGCCUCUCUGGAUUCCUCGUCACUCAGCAGGGCAUCUCUGAGGGAGAUGCC [U14C A24G A138G A141G], for which the self-cleavage was 0.
